Test results from the RNAGym collection of RNA variant scans (doi:10.7554/elife.90254).
Read counts are not given, so values of variants with three or more changes are uncertain.

B1: OR4K15 (parent)
chain: GUUAACGGUCAUAGGCCAUGGAAACUAGGAGCACCAUUUCGCUGCCAGUGAAGAAAUGAACAAAGAAAAUCUGGGCCAGGCAGGCAUCAAAAGAAAUAGUCUUGCGCUCAACCAGAAAGUCUGUAAUCAUUUUAAGGGUA

Variants of: B1
Test: self-cleavage, relative activity (ratio to wild type); higher = more cleavage; in vitro, sequencing; the parent is a self-cleaving ribozyme

With GUUAACGGUCAUAGGCCAUGGAAACUAGGAGCACCAUUUCGCUGCCAGUGGAGAAAUGAGCAAAGAAAAUCUGGGCCAGGCAGGCAUCAAAAGGAAUAGUCUUGCGCUCAACCAGAAAGUCUGUAAUCAUUUCAAGGGUA [A51G A60G A94G U133C] as the variant, how does the self-cleavage read?
Its self-cleavage is 1.74.

For GUUAACGGUCAUAGGCCAUGGAAACUAGGAGCACCAUUUCGCUGCCAGUGGAGGAGUGAACAAAGAAAAUCUGGGCCAGGCGGGCAUCAAAAGAAAUAGUCUUGCGCUCAACCAGAAAGUCUGUAAUCAUUUUAAGGGUA [A51G A54G A56G A82G], which self-cleavage is on record?
The self-cleavage was 0.29.

Which self-cleavage does the source give for GUUAACGGUCAUAGGCCAUGGAAACUAGGAGCACCAUUUCGCUGCCAGUGGAGAAAUGUACAAAGAAAAUCUGGGCCAGGCAGGCAUCAAAAGAAAUAGUCUCGCGCUCAACCAGAAAGUCUGUAAUCAUUUUAAGGGUA [A51G A59U U103C] here?
Its self-cleavage is 1.1.

Which self-cleavage does the source give for GUUAACGGUCAUAGGCCAUGGAAACUAGGAGCACCAUUUCGCUGCCAGUGGAGAAAUGAGCAAAGAAAAUCUGGGCCAGGCAGGCAUCAAAAGAAAUAGUCUUGCGCUCAACCAGAAAGUCAGUAAUCAUUUUAAGGGUA [A51G A60G U122A] here?
Its self-cleavage is 0.58.

For GUUAACGGUCAUAGGCCAUGGAAACUAGGAGCACCAUUUCGCUGCCAGUGGAGAAGUGAACAAAGAAAAUCUGGGCCAGGCAGGCAUCAAAAGAAAUAGUCUUGCGCUCAACCAGAAAGCCUGUAAUCAUUCUAAGGGUA [A51G A56G U120C U132C], which self-cleavage is on record?
The self-cleavage was 0.24.

For GUUAACGGUCAUAGGCCAUGGAAACUAGGAGCACCAUUUCGCUGCCAGUGGAGGAAUGAACAAAGAAAAUCUGGGCCAGGCAGGCAUCAAGAGAAAUAGUCUUGCGCUCAACCAGAAAGUCUGUAAUCAUUUUAAGGGUA [A51G A54G A91G], which self-cleavage is on record?
Its self-cleavage is 1.98.

Which self-cleavage does the source give for GUUAACGGUCAUAGGCCAUGGAAACUAGGAGCACCAUUUCGCUGCCAGUGGAGAGAUGAACAAAGAAAAUCUGGGCCUGGCGGGCAUCAAAAGAAAUAGUCUUGCGCUCAACCAGUAAGUCUGUAAUCAUUUUAAGGGUA [A51G A55G A78U A82G A116U] here?
The self-cleavage was 0.03.

Which self-cleavage does the source give for GUUAACGGUCAUAGGCCAUGGAAACUAGGAGCACCAUUUCGCUGCCAGUGGAGAAAUGGACAAAGAAAAUCUGGGCCAGGCAGGCAUCAAAAGAAACAGUCUUGCGCUCAACCAGAAAGUCUGUAAUCAUUUUAAGGGUA [A51G A59G U97C] here?
The self-cleavage was 0.58.

For GUUAACGGUCAUAGGCCAUGGAAACUAGGAGCACCAUUUCGCUGCCAGUGGAGAAUUGAACAAAGAAAAUCUGGGCCAGGCAGGCACCAAAAGAAAUAGUCUUGCGCUCAACCAGAAAGUCUGUAAUCAUUUUAAGGGUA [A51G A56U U87C], which self-cleavage is on record?
Its self-cleavage is 1.12.

For GUUAACGGUCAUAGGCCAUGGAAACUAGGAGCACCAUUUCGCUGCCAGUGGAGGAAUGAACAAAGAAAAUCUGGGCCAGGCAGGCAUCAAAAGAGAUAGUCUUGCGCUCAACCAGAAAGUCUGUAGUCAUAUUAAGGGUA [A51G A54G A95G A126G U131A], which self-cleavage is on record?
Its self-cleavage is 1.86.

Which self-cleavage does the source give for GUUAACGGUCAUAGGCCAUGGAAACUAGGAGCACCAUUUCGCUGCCAGUGGAGGAAUGAACAAAGAAAAUCUGGGCCAGGCAGGCAUCAAAAGAAAUAGUCUUGCGCUCAACCAGAAAGUCUGUAAUCAUUCUAAGGGUA [A51G A54G U132C] here?
Its self-cleavage is 1.55.

With GUUAACGGUCAUAGGCCAUGGAAACUAGGAGCACCAUUUCGCUGCCAGUGGAGUAAUGAACAAAGAAAAUCUGGGCCAGGCAGGCAUCUAAAGAAAUAGUCUUGCGCUCAACCAGAAAGUCUGUAAUCAUUUUAAGGGUA [A51G A54U A89U] as the variant, how does the self-cleavage read?
Its self-cleavage is 0.76.

For GUUAACGGUCAUAGGCCAUGGAAACUAGGAGCACCAUUUCGCUGCCAGUGGAGAAAUGAGCAAAGAAAAUCUGGGCCAGGCAGGCAUCAAAAGAAAUUGUCUUGCGCUCAACCAGAAAGUCUGUAAUCAUUUUAAGGGUA [A51G A60G A98U], which self-cleavage is on record?
The self-cleavage was 1.71.

Which self-cleavage does the source give for GUUAACGGUCAUAGGCCAUGGAAACUAGGAGCACCAUUUCGCUGCCAGUGGAGUAAUGGACAAAGAAAAUCUGGGCCCGGCAGGCAUCAAAAGAAGUAGUCUUGCGCCCAACCAGAAAGUCUGUAAUCAUUUUAAGGGUA [A51G A54U A59G A78C A96G U108C] here?
Its self-cleavage is 0.07.

With GUUAACGGUCAUAGGCCAUGGAAACUAGGAGCACCAUUUCGCUGCCAGUGGAGUAAUGAACAAAGAAAAUCUGGGCCAGGCAGGCAUCAAAAGAAAUAGUCUUGCGCUCAACCAGAAAGUCUGUAACCAUUUUAAGGGUA [A51G A54U U127C] as the variant, how does the self-cleavage read?
Its self-cleavage is 1.78.

With GUUAACGGUCAUAGGCCAUGGAAACUAGGAGCACCAUUUCGCUGCCAGUGGAGGAAUGAACAAAGAAAAUCUGGGCCAGGCAGGCAUCAAAAGAAAUAGUCUUGCGCUCAACCAUAAAGUCUGUAAUCAUUUUAAGGGCA [A51G A54G G115U U139C] as the variant, how does the self-cleavage read?
Its self-cleavage is 0.14.

With GUUAACGGUCAUAGGCCAUGGAAACUAGGAGCACCAUUUCGCUGCCAGUGGAGAGAUGAACAAAGAAAAUCAGGGCCAGGCAGGCAUCAAAAGAAAUAGUCUUGCGCUCAACCAGAAAGUCUGUAAUCAUUUUAAGGGUA [A51G A55G U72A] as the variant, how does the self-cleavage read?
The self-cleavage was 0.19.

With GUUAACGGUCAUAGGCCAUGGAAACUAGGAGCACCAUUUCGCUGCCAGUGGAGGAAUGAACAAAGAAAAUCUGGGCCAGGCAUGCAUCACAAGAAAUAGUCUUGCGCUCAACCAGCAAGUCUGUAACCAUUUUAAGGGUA [A51G A54G G83U A90C A116C U127C] as the variant, how does the self-cleavage read?
Its self-cleavage is 0.01.

With GUUAACGGUCAUAGGCCAUGGAAACUAGGAGCACCAUUUCGCUGCCAGUGGAGAUAUGAACAAAGGAAAUCUGGGCCAGGCAGGCAUCAAAAGAAAUAGUCUUGCGCUCAACCAGAAAGUCUGUAAUCAUUUUAAGGGUA [A51G A55U A66G] as the variant, how does the self-cleavage read?
The self-cleavage was 1.73.

With GUUAACGGUCAUAGGCCAUGGAAACUAGGAGCACCAUUUCGCUGCCAGUGGAGAAUUGAACAAAGAAAAUCUGGGCCAGGCAGGCAUCAAAAGAAAUAGUCUUGCGCUCAACCUGAAAGUCUGCAAUCAUUUUAAGGGUA [A51G A56U A114U U124C] as the variant, how does the self-cleavage read?
Its self-cleavage is 0.02.

Which self-cleavage does the source give for GUUAACGGUCAUAGGCCAUGGAAACUAGGAGCACCAUUUCGCUGCCAGUGGAGAAAUGGACAAAGAAAAUCUGGGCCAGGCAGGCAUCAAAAGAAAUAGUUCUGCGCUCAACCAGAAAGUCUGUAAUCAUUUUAAGGGUA [A51G A59G C101U U102C] here?
The self-cleavage was 1.79.
